Laboratory results published in the supplement of paper PMC6828730.
Where a name gives a salt, the structure may show the parent alone. The list shows a part of the results. Repeats are few or missing, and single values can be far off.

system: hiPSC-derived cardiomyocytes; experiment: time to death of most cells in well after compound addition (days); higher = less cardiotoxic; extreme values may be limits of the assay; details: screen: 3; 10 µM

| SMILES | time to death of most cells in well |
| --- | --- |
| O=C(O)[C@]1(Cc2cccc(Nc3nccs3)n2)CC[C@@H](Oc2cccc(Cl)c2F)CC1 | > 7 |
| COc1ccc(CNC(=O)Nc2ncc([N+](=O)[O-])s2)cc1 | 2.5 |
| O=c1c(O)c(-c2ccc(O)c(O)c2)oc2cc(O)cc(O)c12 [Quercetin] | > 7 |
| Cn1cc(C2=C(c3ccc(Cl)cc3Cl)C(=O)NC2=O)c2ccccc21 | > 7 |
| COc1cc(N2CCC(N3CCN(C)CC3)CC2)ccc1Nc1ncnc(Nc2ccccc2S(=O)(=O)C(C)C)n1 | > 7 |
| COc1ccc(-c2cc3c(C)nc(N)nc3n([C@H]3CC[C@H](OCCO)CC3)c2=O)cn1 | > 7 |
| C=CC(=O)Nc1cccc(Oc2nc(Nc3ccc(N4CCN(C)CC4)cc3OC)ncc2Cl)c1 | 3.5 |
| CN1CCN(c2ccc3nc(-c4c(N)c5c(F)cccc5[nH]c4=O)[nH]c3c2)CC1 [Dovitinib (TKI-258) Dilactic Acid] | > 7 |
| N#Cc1c(O)c2c(-c3ccc(-c4ccccc4O)cc3)csc2[nH]c1=O | > 7 |
| Cn1cc(-c2ccc3nnc(C(F)(F)c4ccc5ncccc5c4)n3n2)cn1 | > 7 |
| O=C(O)CCC(=O)Nc1ccc(Br)cn1 [Bikinin] | > 7 |
| CN1CCC(Nc2nc(Nc3ccc(Oc4ccccc4)cc3)c3c(=O)[nH]cc(Br)c3n2)CC1 | 3 |
| O=C(NOCC(O)CO)c1cc(Br)c(F)c(F)c1Nc1ccc(I)cc1F (stereo not drawn) | > 7 |
| Cc1nc(N)sc1-c1ccnc(Nc2ccc(N3CCOCC3)cc2)n1 | > 7 |
| CC(C)(C#N)c1ccc(N2C(=O)OCc3cnc4ccc(-c5cnc6ccccc6c5)cc4c32)cc1 | > 7 |
| C[C@]1(O)C[C@@H](c2nc(-c3ccc4ccc(-c5ccccc5)nc4c3)c3c(N)nccn32)C1 [Linsitinib (OSI-906)] | > 7 |
| CCCS(=O)(=O)Nc1ccc(F)c(C(=O)c2c[nH]c3ncc(-c4ccc(Cl)cc4)cc23)c1F [Vemurafenib (PLX4032, RG7204)] | > 7 |
| OCCn1cc(-c2cnc3nnn(Cc4ccc5ncccc5c4)c3n2)cn1 | > 7 |
| COc1ccc(-c2nc(N3CCOCC3)c3sc(CN(C)c4ncc(C(=O)NO)cn4)cc3n2)cn1 | 5.5 |

| SMILES | time to death of most cells in well |
| --- | --- |
| CNC(=O)c1cccc(-c2ccc3c(N4CCOC[C@@H]4C)nc(N4CCOC[C@@H]4C)nc3n2)c1 [Vistusertib (AZD2014)] | > 7 |
| COc1cc2ncnc(Nc3cccc(Cl)c3F)c2cc1OC(=O)N1CCN(C)C[C@H]1C | > 7 |
| O=C(Nc1cccc(Cl)c1)Nc1ncc(CCNc2ncnc3ccsc23)s1 [SNS-314 Mesylate] | > 7 |
| C=CC(=O)Nc1cccc(Sc2nc(Nc3ccc(N4CCN(C)CC4)cc3)ncc2Cl)c1 | 2.5 |
| COc1ccc2c(c1)/C(=C/c1cnc[nH]1)C(=O)N2 | > 7 |
| CC(C)(C)c1cc(C=C(C#N)C#N)cc(Br)c1O | > 7 |
| C[C@H](NC(=O)/C(C#N)=C/c1cccc(Br)n1)c1ccccc1 | > 7 |
| COc1cc2c(Oc3ccc4[nH]c(C)cc4c3F)ncnc2cc1OCCCN1CCCC1 [Cediranib (AZD2171)] | 3 |
| COc1c(C)c(C(=O)c2ccc(N)c(C(=O)O)c2)n2ccccc12 | > 7 |
| COc1ncc(-c2ccc3nccc(-c4ccnnc4)c3c2)cc1NS(=O)(=O)c1ccc(F)cc1F | > 7 |
| COc1ccccc1-c1cc(Nc2cccc(CS(N)(=O)=O)c2)ncn1 | > 7 |
| CN1CCC(CNc2ccc3ncc(-c4cccc(OC(F)(F)F)c4)n3n2)CC1 [SGI-1776 free base] | 0.5 |
| O=C(Nc1nc2cccc(-c3ccc(CN4CCS(=O)(=O)CC4)cc3)n2n1)C1CC1 [Filgotinib (GLPG0634)] | 3 |
| CC(=O)c1c(C)c2cnc(Nc3ccc(N4CCNCC4)cn3)nc2n(C2CCCC2)c1=O | > 7 |
| COc1cc2c(c(OC)c1OC)-c1c(cc3c(c1OC)OCO3)CC(C)C(C)C2 (stereo not drawn) [Schisandrin B (Sch B)] | > 7 |
| O=c1ncn2nc(Sc3ccc(F)cc3F)ccc2c1-c1c(Cl)cccc1Cl | 3 |
| CN1CCN(c2nc(C3=C(c4c[nH]c5ccccc45)C(=O)NC3=O)c3ccccc3n2)CC1 [Sotrastaurin] | > 7 |
| COc1cc2ncnc(Oc3ccc(CC(=O)Nc4cnn(C(C)C)c4)cc3)c2cc1OC | > 7 |
| Clc1ccc(Nc2nnc(Cc3ccncc3)c3ccccc23)cc1 [Vatalanib (PTK787) 2HCl] | > 7 |
